In PubChem BioAssay AID1745853 (National Center for Advancing Translational Sciences (NCATS), 2022):
Several values for one entry are separate records, joined by “and”; a condition that tells them apart may be missing. Equal values may be shown once. Some of the results follow. Shown are side measurements of this screen, not its main read-out; they come without a call.

Tests used:
Test in all cases: Primary Screen for Target Class Profiling of Small Molecule Inhibitors of Methyltransferases
[1] = target: Glycine N-methyltransferase (Homo sapiens) (UniProt Q14749); conditions: purified enzyme, MTase-Glo SAH luminescence; measured here: GNMT inhibition; at 40 µM; stronger effect = lower value
Method in brief: (§1)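 Each enzyme was reacted with SAM and its substrate, with compounds tested once at 40 uM; SAH formed was read by MTase-Glo luminescence.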

[2] = target: Guanidinoacetate N-methyltransferase (Homo sapiens) (UniProt Q14353); conditions: purified enzyme, MTase-Glo SAH luminescence; measured here: GAMT inhibition; at 40 µM; stronger effect = lower value
Method in brief: as §1

[3] = target: Histamine N-methyltransferase (Homo sapiens) (UniProt P50135); conditions: purified enzyme, MTase-Glo SAH luminescence; measured here: HNMT inhibition; at 40 µM; stronger effect = lower value
Method in brief: as §1

[4] = target: Nicotinamide N-methyltransferase (Homo sapiens) (UniProt P40261); conditions: purified enzyme, MTase-Glo SAH luminescence; measured here: NNMT inhibition; at 40 µM; stronger effect = lower value
Method in brief: as §1

[5] = target: Phenylethanolamine N-methyltransferase (Homo sapiens) (UniProt P11086); conditions: purified enzyme, MTase-Glo SAH luminescence; measured here: PNMT inhibition; at 40 µM; stronger effect = lower value
Method in brief: as §1
% is scaled to controls: 0 for no effect and ±100 for the full control effect.

Compound | activity change, negative = inhibition [1] | activity change, negative = inhibition [2] | activity change, negative = inhibition [3] | activity change, negative = inhibition [4] | activity change, negative = inhibition [5]
O=C(NC1CCCCC1)N1CCCCCC1c1nc(-c2ccncc2)no1 (stereo not drawn) | -5.32% | -10.7% | -4% | -8.44% | -0.029%
OC[C@H]1O[C@@H](OCc2ccccc2)[C@H](O)[C@@H](O)[C@@H]1O | 0% | 3.88% | 3.61% | -6.69% | 6.21%
Cc1ccc(CN2C(=O)c3cc4oc(C)cc4n3CC2(C)C(=O)NC2CCCCC2)cc1 (stereo not drawn) | 0.365% | 0.908% | 3.27% | -0.097% | -1.6%
CCOC(=O)c1cc2n(n1)CC(C)(C(=O)NC1CCCCC1)N(c1cc(OC)cc(OC)c1)C2=O (stereo not drawn) | -1.95% | -1.43% | -8.3% | 0.56% | 0.573%
COc1cccc(CNC(=O)c2ncn3c2C(=O)N(C2CC2)C(C)(C(=O)NCc2ccccc2Cl)C3)c1 (stereo not drawn) | -8.84% | 4.51% | -3.47% | -5.05% | -0.282%
CCCCc1cn(CC2CCN(C(=O)c3ccsc3)CC2)nn1 | -3.33% | -1.74% | 0.623% | -7.83% | -1.67%
CCN[C@@H]1C[C@H](N)[C@@H](O[C@H]2OC(CN)=CC[C@H]2N)[C@H](O)[C@H]1O[C@H]1OC[C@](C)(O)[C@H](NC)[C@H]1O | 0.722% and -2.13% | -12.7% and 5.28% | -2.2% and 0.1% | -18% and -6.38% | -14.6% and -3.19%
Cc1ccc(CN2C(=O)NC3(CCN(C(=O)c4cccc(Cl)c4)C3)C2=O)cc1 (stereo not drawn) | -1.37% | -1.55% | 1.57% | -3.49% | 1.49%
COCCN1C(=O)c2c(NC(C)=O)c3cc(OC)ccc3n2CC1(C)C(=O)NC1CCCCC1 (stereo not drawn) | 5.82% | 0% | 10.4% | 7.47% | 4.31%
O=c1cc(-c2ccc(O)cc2)oc2cc(OC3OC(CO)C(O)C(O)C3O)c(C3OC(CO)C(O)C(O)C3O)c(O)c12 (stereo not drawn) | – | 7.31% | – | -9.36% | -2.76%
Cc1cccc(CCNC(=O)Cn2c(=O)oc3cc(S(=O)(=O)N4CCCC4)ccc32)c1 | -14.7% | 5.64% | -1.68% | -2.9% | -6.14%
COc1ccc(CC(=O)Nc2ccc3c(c2)CN(CCOc2ccccc2)C(=O)C(C)O3)cc1 (stereo not drawn) | -2.15% | 0.253% | -5.29% | 0.57% | 3.62%
O=C(NCc1ccnc2[nH]ccc12)c1cncc(Br)c1 | -9.27% | -10.3% | -10.2% | -14.2% | -8.62%
O=C(C1CC1)N1CCN2C(=O)N(C3CCCCC3)C[C@H]2C1 | -5.82% | -7.85% | -3.3% | -17.6% | -9.33%
COC1CC(O[C@H]2CC[C@@]3(C)C(=CC[C@]4(O)C3[C@H](OC(C)=O)[C@@H](OC(=O)c3ccccc3)[C@]3(C)[C@@H](C(C)=O)CC[C@@]34O)C2)OC(C)C1OC1CC(OC)C(OC2CC(OC)C(OC3OC(C)C(OC4OC(CO)C(O)C(O)C4O)C(OC)C3O)C(C)O2)C(C)O1 (stereo partly drawn) | -0.735% | -2.89% | 1.84% | -2.54% | 3.96%
O=Cc1ccc(-c2cc(C(F)(F)F)ccc2Cl)cc1 | -6.67% | -0.793% | -0.963% | -12% | -12.6%
O=C1NC(=O)C(c2ccccc2)(c2ccccc2)N1 | -2.31% | 8.22% | 0.727% | -1.49% | 9.85%
COc1ccnc(CN2C(=O)NC(CCc3ccccc3)(C3CCNCC3)C2=O)c1 (stereo not drawn) | -3.35% | -4.12% | -1.78% | -8% | -0.114%
CC(C)(O)c1ccccc1CC[C@@H](SCC1(CC(=O)O)CC1)c1cccc(/C=C/c2ccc3ccc(Cl)cc3n2)c1 | -31.8% | -25.3% | -2.73% | -76.3% | -7.83%
CCOC(=O)c1cc2n(n1)CC(C)(C(=O)NCc1ccc(F)cc1)N(c1ccc(OC)cc1)C2=O (stereo not drawn) | 0.068% | 0% | 0.253% | 0.57% | -2.15%
Cc1ccccc1CN1C(=O)c2ccc(-c3ccccc3)n2CC1(C)C(=O)NC1CCCCCC1 (stereo not drawn) | -1.69% | -0.601% | -5.03% | -7.68% | -6.58%
CCC(C)NC(=O)c1ccc2c(=O)n(CC(C)C)c3nn(Cc4ccc(F)cc4Cl)c(=O)n3c2c1 (stereo not drawn) | -10.2% | -0.867% | -2.15% | -8.16% | -3.65%
COc1ccc(-c2n[nH]n3c2nc(=O)c2ccc(C(=O)NCCCOC(C)C)cc23)cc1 | -0.185% | 0.306% | 6.53% | -0.894% | 0.828%
COc1cccc(CSc2nnc3n(Cc4ccc(C)cc4)c(=O)c4ccccc4n23)c1 | -2.17% | 1.75% | -0.273% | -4.61% | -2.5%
COc1ccc(CCNC(=O)CC(c2cccc(F)c2)c2cn(C)c3ccccc23)cc1OC (stereo not drawn) | -11.4% | -10.1% | -27.7% | -14.5% | -15.3%
CC(C)CCNC(=O)C1(C)Cn2c(c(-n3cccc3)c3ccccc32)C(=O)N1CCc1cccs1 (stereo not drawn) | 4.5% | 0% | -0.967% | 3.91% | 0.413%
COc1cc(C(=O)NCCCn2ccnn2)ccc1OC1CCN(C(C)=O)CC1 | -7.36% | -12.4% | -4.52% | -19.6% | -16.7%
CN1Cc2c(N)cccc2C(c2ccccc2)C1 (stereo not drawn) | -12.6% | 3.08% | -33.9% | -11.4% | 3.94%
